Measurements: the supplement of paper PMC8728848
This is one part of the list.

Legend:
Experiment in all cases: glycan array binding signal (z-score within array); higher = stronger binding
Details in all cases: glycan notation: IUPAC condensed, linker removed
Gal3S(b1-3)GalNAc = target: Gal3S(b1-3)GalNAc
Outline: (§1)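 From the Consortium for Functional Glycomics database, 3228 arrays were curated, keeping only those whose protein sequence was available. Binding is given as a within-array Z-score averaged across arrays sharing a protein sequence and across linkers. Negative Z-scores can be read as non-binding.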

Gal3S(b1-3)GlcNAc = target: Gal3S(b1-3)GlcNAc
Outline: as §1

[1] = target: Gal3S(b1-3)[Fuc(a1-4)]GlcNAc
Outline: as §1

Gal3S(b1-4)Glc = target: Gal3S(b1-4)Glc
Outline: as §1

Gal3S(b1-4)Glc6S = target: Gal3S(b1-4)Glc6S
Outline: as §1

Gal3S(b1-4)GlcNAc = target: Gal3S(b1-4)GlcNAc
Outline: as §1

Gal3S(b1-4)GlcNAc6S = target: Gal3S(b1-4)GlcNAc6S
Outline: as §1

[2] = target: Gal3S(b1-4)[Fuc(a1-3)]Glc
Outline: as §1

[3] = target: Gal3S(b1-4)[Fuc(a1-3)]Glc6S
Outline: as §1

[4] = target: Gal3S(b1-4)[Fuc(a1-3)]GlcNAc
Outline: as §1

[5] = target: Gal3S(b1-4)[Fuc(a1-3)]GlcNAc6S
Outline: as §1

Gal3S4S(b1-4)GlcNAc = target: Gal3S4S(b1-4)GlcNAc
Outline: as §1

Gal3S6S(b1-4)GlcNAc = target: Gal3S6S(b1-4)GlcNAc
Outline: as §1

Gal3S6S(b1-4)GlcNAc6S = target: Gal3S6S(b1-4)GlcNAc6S
Outline: as §1

Gal4S(b1-4)GlcNAc = target: Gal4S(b1-4)GlcNAc
Outline: as §1

Gal4S6S(b1-4)GlcNAc = target: Gal4S6S(b1-4)GlcNAc
Outline: as §1

Gal6P(b1-4)GlcNAc = target: Gal6P(b1-4)GlcNAc
Outline: as §1

Gal6S(b1-3)GlcNAc = target: Gal6S(b1-3)GlcNAc
Outline: as §1

Gal6S(b1-3)GlcNAc6S = target: Gal6S(b1-3)GlcNAc6S
Outline: as §1

Gal6S(b1-4)Glc = target: Gal6S(b1-4)Glc
Outline: as §1

Gal6S(b1-4)Glc6S = target: Gal6S(b1-4)Glc6S
Outline: as §1

Gal6S(b1-4)GlcNAc = target: Gal6S(b1-4)GlcNAc
Outline: as §1

Gal6S(b1-4)GlcNAc6S = target: Gal6S(b1-4)GlcNAc6S
Outline: as §1

GalNAc(a1-3)Gal = target: GalNAc(a1-3)Gal
Outline: as §1

GalNAc(a1-3)GalNAc = target: GalNAc(a1-3)GalNAc
Outline: as §1

[6] = target: GalNAc(a1-3)GalNAc(b1-3)Gal(a1-4)Gal(b1-4)Glc
Outline: as §1

[7] = target: GalNAc(a1-3)GalNAc(b1-3)Gal(a1-4)Gal(b1-4)GlcNAc
Outline: as §1

GalNAc(b1-3)Gal = target: GalNAc(b1-3)Gal
Outline: as §1

[8] = target: GalNAc(b1-3)Gal(a1-4)Gal(b1-4)GlcNAc
Outline: as §1

[9] = target: GalNAc(b1-3)Gal(a1-4)Gal(b1-4)GlcNAc(b1-3)Gal(b1-4)Glc
Outline: as §1

[10] = target: GalNAc(b1-3)Gal(a1-6)Gal(b1-4)Glc
Outline: as §1

GalNAc(b1-3)GalNAc = target: GalNAc(b1-3)GalNAc
Outline: as §1

GalNAc(b1-3)GlcNAc = target: GalNAc(b1-3)GlcNAc
Outline: as §1

GalNAc(b1-4)Gal(b1-4)Glc = target: GalNAc(b1-4)Gal(b1-4)Glc
Outline: as §1

GalNAc(b1-4)GlcNAc = target: GalNAc(b1-4)GlcNAc
Outline: as §1

[11] = target: GalNAc(b1-4)GlcNAc(b1-2)Man
Outline: as §1

[12] = target: GalNAc(b1-4)GlcNAc(b1-2)Man(a1-3)[GalNAc(b1-4)GlcNAc(b1-2)Man(a1-6)]Man(b1-4)GlcNAc(b1-4)GlcNAc
Outline: as §1

[13] = target: GalNAc(b1-4)GlcNAc(b1-3)GalNAc(b1-4)GlcNAc
Outline: as §1

GalNAc(b1-4)GlcNAc6S = target: GalNAc(b1-4)GlcNAc6S
Outline: as §1

GalNAc(b1-6)GalNAc = target: GalNAc(b1-6)GalNAc
Outline: as §1

GalNAc3S(b1-4)GlcNAc = target: GalNAc3S(b1-4)GlcNAc
Outline: as §1

GalNAc3S(b1-4)GlcNAc3S = target: GalNAc3S(b1-4)GlcNAc3S
Outline: as §1

[14] = target: GalNAc3S(b1-4)[Fuc(a1-3)]GlcNAc
Outline: as §1

GalNAc4S6S(b1-4)GlcNAc = target: GalNAc4S6S(b1-4)GlcNAc
Outline: as §1

GalNAc6S(b1-4)GlcNAc = target: GalNAc6S(b1-4)GlcNAc
Outline: as §1

B1: OrysaEULS2 (Oryza sativa) (protein)
chain: MVYCRANPNYAMTARNGAVVLAPANPKDEYQHWIKDMRWSTSIKDEEGYPAFALVNKATGQAIKHSLGQSHPVRLVPYNPEVMDESVLWTESRDVGNGFRCIRMVNNIYLNFDAFHGDKYHGGVRDGTDIVLWKWCEGDNQRWKIQPYYILEQKLISEEDLNSAVDHHHHHH
- glycan array binding signal (z-score) (Gal3S(b1-3)GalNAc): -0.186
- glycan array binding signal (z-score) (Gal3S(b1-3)GlcNAc): -0.207
- glycan array binding signal (z-score) [1]: -0.199
- glycan array binding signal (z-score) (Gal3S(b1-4)Glc): -0.179
- glycan array binding signal (z-score) (Gal3S(b1-4)Glc6S): -0.146
- glycan array binding signal (z-score) (Gal3S(b1-4)GlcNAc): -0.172
- glycan array binding signal (z-score) (Gal3S(b1-4)GlcNAc6S): -0.168
- glycan array binding signal (z-score) [2]: -0.168
- glycan array binding signal (z-score) [3]: -0.183
- glycan array binding signal (z-score) [4]: -0.254
- glycan array binding signal (z-score) [5]: 0.472
- glycan array binding signal (z-score) (Gal3S4S(b1-4)GlcNAc): -0.193
- glycan array binding signal (z-score) (Gal3S6S(b1-4)GlcNAc): -0.187
- glycan array binding signal (z-score) (Gal3S6S(b1-4)GlcNAc6S): -0.187
- glycan array binding signal (z-score) (Gal4S(b1-4)GlcNAc): -0.227
- glycan array binding signal (z-score) (Gal4S6S(b1-4)GlcNAc): -0.198
- glycan array binding signal (z-score) (Gal6P(b1-4)GlcNAc): -0.204
- glycan array binding signal (z-score) (Gal6S(b1-3)GlcNAc): -0.164
- glycan array binding signal (z-score) (Gal6S(b1-3)GlcNAc6S): -0.16
- glycan array binding signal (z-score) (Gal6S(b1-4)Glc): -0.2
- glycan array binding signal (z-score) (Gal6S(b1-4)Glc6S): -0.204
- glycan array binding signal (z-score) (Gal6S(b1-4)GlcNAc): -0.157
- glycan array binding signal (z-score) (Gal6S(b1-4)GlcNAc6S): -0.205
- glycan array binding signal (z-score) (GalNAc(a1-3)Gal): -0.2
- glycan array binding signal (z-score) (GalNAc(a1-3)GalNAc): -0.213
- glycan array binding signal (z-score) [6]: -0.208
- glycan array binding signal (z-score) [7]: -0.185
- glycan array binding signal (z-score) (GalNAc(b1-3)Gal): -0.182
- glycan array binding signal (z-score) [8]: -0.182
- glycan array binding signal (z-score) [9]: -0.135
- glycan array binding signal (z-score) [10]: -0.202
- glycan array binding signal (z-score) (GalNAc(b1-3)GalNAc): -0.199
- glycan array binding signal (z-score) (GalNAc(b1-3)GlcNAc): -0.242
- glycan array binding signal (z-score) (GalNAc(b1-4)Gal(b1-4)Glc): -0.178
- glycan array binding signal (z-score) (GalNAc(b1-4)GlcNAc): -0.204
- glycan array binding signal (z-score) [11]: -0.257
- glycan array binding signal (z-score) [12]: 0.022
- glycan array binding signal (z-score) [13]: -0.219
- glycan array binding signal (z-score) (GalNAc(b1-4)GlcNAc6S): -0.166
- glycan array binding signal (z-score) (GalNAc(b1-6)GalNAc): -0.168
- glycan array binding signal (z-score) (GalNAc3S(b1-4)GlcNAc): -0.181
- glycan array binding signal (z-score) (GalNAc3S(b1-4)GlcNAc3S): -0.189
- glycan array binding signal (z-score) [14]: -0.225
- glycan array binding signal (z-score) (GalNAc4S6S(b1-4)GlcNAc): -0.215
- glycan array binding signal (z-score) (GalNAc6S(b1-4)GlcNAc): -0.187
